# This is one part of the list. Repeats are few or missing, and single values can be far off.
# Key:
# Experiment in all cases: cell count relative to DMSO control; melanoma cells; higher = more viable cells
# Conditions in all cases: library dose: standard library concentration; 72 h
# G361 = tested on: G361
# IPC-298 = tested on: IPC-298
# IST-MEL1 = tested on: IST-MEL1
# LB2518-MEL = tested on: LB2518-MEL
# LOXIMVI = tested on: LOXIMVI
# MEL-HO = tested on: MEL-HO
# MZ2-MEL = tested on: MZ2-MEL
# MeWo = tested on: MeWo
# RPMI7951 = tested on: RPMI7951
# RVH-421 = tested on: RVH-421
# 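Note: cells treated in 1,536-well plates, then fixed and DAPI-stained, with nuclei counted from automated high-throughput microscope images.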
SMILES,cell count (G361),cell count (IPC-298),cell count (IST-MEL1),cell count (LB2518-MEL),cell count (LOXIMVI),cell count (MEL-HO),cell count (MZ2-MEL),cell count (MeWo),cell count (RPMI7951),cell count (RVH-421)
"Cc1nc(Nc2ncc(C(=O)Nc3c(C)cccc3Cl)s2)cc(N2CCN(CCO)CC2)n1 [dasatanib] + O=c1cc(-c2cccc3c2Sc2ccccc2S3)oc(N2CCOCC2)c1 [KU55933] (first compound 0.02 µM, partner dose 5 µM)",47.4%,87.6%,65.2%,86.9%,37.4%,71.5%,57%,82.9%,56.2%,58.9%
"OCCn1cc(-c2cnc3nnn(Cc4ccc5ncccc5c4)c3n2)cn1 + COC(=O)c1sccc1S(=O)(=O)Nc1ccc(Nc2ccccc2)cc1OC [GSK0660] (first compound 5 µM, partner dose 5 µM)",107%,91.8%,105%,104%,121%,104%,78.4%,108%,72.4%,85.3%
"C=CCn1c(=O)c2cnc(Nc3ccc(N4CCN(C)CC4)cc3)nc2n1-c1cccc(C(C)(C)O)n1 + COc1ccc(-c2ccc3c(N4CCOCC4)nc(N4C[C@@H](C)O[C@@H](C)C4)nc3n2)cc1CO [KU0063794] (first compound 0.1 µM, partner dose 0.1 µM)",67.7%,60.8%,89.7%,59.2%,87.2%,74.6%,69.8%,84.7%,51.3%,63.6%
"Cc1nc(Nc2ncc(C(=O)Nc3c(C)cccc3Cl)s2)cc(N2CCN(CCO)CC2)n1 [dasatanib] + CO[C@@H]1[C@H](N(C)C(=O)c2ccccc2)C[C@H]2O[C@]1(C)n1c3ccccc3c3c4c(c5c6ccccc6n2c5c31)C(=O)NC4 [Midostaurin] (first compound 0.02 µM, partner dose 0.4 µM)",51%,52.4%,46.1%,40.6%,4.69%,60.6%,29.5%,67%,22.8%,54.4%
"CO[C@@H]1[C@H](N(C)C(=O)c2ccccc2)C[C@H]2O[C@]1(C)n1c3ccccc3c3c4c(c5c6ccccc6n2c5c31)C(=O)NC4 [Midostaurin] + O=C(O)c1ccc(-c2c[nH]c3ncc(-c4ccccc4)cc23)cc1C1CCCC1 [GSK650394] (first compound 0.4 µM, partner dose 0.8 µM)",49.9%,56.1%,58.8%,64%,62.1%,53.6%,61.9%,75.7%,53.9%,70.3%
"OCCn1cc(-c2cnc3nnn(Cc4ccc5ncccc5c4)c3n2)cn1 + O=C(O)c1ccc(-c2c[nH]c3ncc(-c4ccccc4)cc23)cc1C1CCCC1 [GSK650394] (first compound 5 µM, partner dose 0.8 µM)",58.9%,81.9%,71.1%,87.2%,69.3%,74.7%,88.6%,89%,54.8%,67.5%
"Cc1nc(Nc2ncc(C(=O)Nc3c(C)cccc3Cl)s2)cc(N2CCN(CCO)CC2)n1 [dasatanib] + C[C@@H]1CCN(C(=O)CC#N)C[C@@H]1N(C)c1ncnc2[nH]ccc12 [CP690550] (first compound 0.02 µM, partner dose 5 µM)",67.8%,104%,71.4%,80.8%,6.93%,80.3%,58.4%,114%,44.5%,80.7%
"CO[C@@H]1[C@H](N(C)C(=O)c2ccccc2)C[C@H]2O[C@]1(C)n1c3ccccc3c3c4c(c5c6ccccc6n2c5c31)C(=O)NC4 [Midostaurin] + O=S(=O)(c1ccccc1)N(CC(F)(F)F)c1ccc(C(O)(C(F)(F)F)C(F)(F)F)cc1 [T0901317] (first compound 0.4 µM, partner dose 7 µM)",36.1%,47.6%,78.8%,32.7%,49.5%,63.4%,37%,65.1%,39.3%,83%
"CN(C)S(=O)(=O)c1ccc2c(c1)/C(=C/c1cc3c([nH]1)CCCC3)C(=O)N2 + CCCCCCCCCCCC1=C(O)C(=O)C=C(O)C1=O [Embelin] (first compound 2 µM, partner dose 6 µM)",56.4%,52.8%,61.4%,95.9%,112%,79.5%,71.1%,97%,60.4%,72.8%
"C=CCn1c(=O)c2cnc(Nc3ccc(N4CCN(C)CC4)cc3)nc2n1-c1cccc(C(C)(C)O)n1 + CCN(CC)CCCCNc1ncc2cc(-c3cc(OC)cc(OC)c3)c(NC(=O)NC(C)(C)C)nc2n1 [PD173074] (first compound 0.1 µM, partner dose 0.5 µM)",87.3%,84.2%,114%,47.4%,60.2%,101%,91.1%,75.7%,52.6%,93.5%
"CO[C@@H]1[C@H](N(C)C(=O)c2ccccc2)C[C@H]2O[C@]1(C)n1c3ccccc3c3c4c(c5c6ccccc6n2c5c31)C(=O)NC4 [Midostaurin] + OCCn1cc(-c2cnc3nnn(Cc4ccc5ncccc5c4)c3n2)cn1 [PF04217903] (first compound 0.4 µM, partner dose 5 µM)",68.8%,88.6%,76.2%,79.4%,54.4%,78.9%,93.7%,69.9%,66.7%,10.3%
"CO[C@@H]1[C@H](N(C)C(=O)c2ccccc2)C[C@H]2O[C@]1(C)n1c3ccccc3c3c4c(c5c6ccccc6n2c5c31)C(=O)NC4 [Midostaurin] + O=C(Nc1ccccc1)c1cc([N+](=O)[O-])ccc1Cl [GW9662] (first compound 0.4 µM, partner dose 10 µM)",43.9%,53.5%,63%,42.6%,35%,57.9%,41.3%,44.8%,39.1%,83%
"Cc1nc(Nc2ncc(C(=O)Nc3c(C)cccc3Cl)s2)cc(N2CCN(CCO)CC2)n1 [dasatanib] + O=C(O)C(=O)Nc1sc2c(c1C(=O)O)CCNC2 [TCS401] (first compound 0.02 µM, partner dose 8.33333 µM)",78.9%,100%,71%,84.7%,27.8%,74.9%,49.8%,71.1%,36.8%,70.3%
"CO[C@@H]1[C@H](N(C)C(=O)c2ccccc2)C[C@H]2O[C@]1(C)n1c3ccccc3c3c4c(c5c6ccccc6n2c5c31)C(=O)NC4 [Midostaurin] + C[C@@H]1CCN(C(=O)CC#N)C[C@@H]1N(C)c1ncnc2[nH]ccc12 [CP690550] (first compound 0.4 µM, partner dose 5 µM)",39.9%,48.7%,59.7%,57.1%,39.4%,68%,46.4%,72.4%,27.3%,73.8%
"NCC(=O)Nc1ccc(-n2nc(C(F)(F)F)cc2-c2ccc3c(ccc4ccccc43)c2)cc1 + COc1ccc(COc2ccc(Cc3cnc(N)nc3N)cc2OC)cc1 [GW2580] (first compound 5 µM, partner dose 5 µM)",54.9%,60.6%,76%,87.9%,69.5%,73.4%,69.9%,87.2%,91.7%,80.8%
"CO[C@@H]1[C@H](N(C)C(=O)c2ccccc2)C[C@H]2O[C@]1(C)n1c3ccccc3c3c4c(c5c6ccccc6n2c5c31)C(=O)NC4 [Midostaurin] + CCc1ccc(CCOc2ccc(CC3SC(=O)NC3=O)cc2)nc1 [pioglitazone] (first compound 0.4 µM, partner dose 10 µM)",32.2%,56.8%,65.3%,65.4%,49.6%,62.4%,48.9%,64.4%,36.1%,54.8%
"CO[C@@H]1[C@H](N(C)C(=O)c2ccccc2)C[C@H]2O[C@]1(C)n1c3ccccc3c3c4c(c5c6ccccc6n2c5c31)C(=O)NC4 [Midostaurin] + CC(C)CCN1c2nc(Nc3cc(F)c(O)c(F)c3)ncc2N(C)C(=O)C1C [BID1870] (first compound 0.4 µM, partner dose 1 µM)",51.2%,37.4%,80.2%,62.9%,45.1%,55.8%,57.3%,60.3%,44.2%,56.7%
"C=CCn1c(=O)c2cnc(Nc3ccc(N4CCN(C)CC4)cc3)nc2n1-c1cccc(C(C)(C)O)n1 + Cn1cc(/C=C2\C(=O)Nc3cccnc32)c2ccccc21 [GW441756] (first compound 0.1 µM, partner dose 2 µM)",88.3%,62.8%,97.3%,72.3%,78.3%,96.1%,75.9%,64.8%,76.3%,81.8%
"NCC(=O)Nc1ccc(-n2nc(C(F)(F)F)cc2-c2ccc3c(ccc4ccccc43)c2)cc1 + COc1cc2ncnc(Nc3ccc(Oc4ccccc4)cc3)c2cc1OC [SrcI1] (first compound 5 µM, partner dose 10 µM)",7.94%,48.5%,75.1%,70.6%,59%,32.3%,46.1%,54.8%,2.85%,76.6%
"OCCn1cc(-c2cnc3nnn(Cc4ccc5ncccc5c4)c3n2)cn1 + CCc1ccc(CCOc2ccc(CC3SC(=O)NC3=O)cc2)nc1 [pioglitazone] (first compound 5 µM, partner dose 10 µM)",98.8%,103%,104%,106%,107%,86.1%,95.6%,95%,77.4%,93.3%
"NC(=O)Nc1cc(-c2cccc(F)c2)sc1C(=O)N[C@H]1CCCNC1 + CCN(CC)CCCCNc1ncc2cc(-c3cc(OC)cc(OC)c3)c(NC(=O)NC(C)(C)C)nc2n1 [PD173074] (first compound 0.1 µM, partner dose 0.5 µM)",90.8%,77.7%,97.2%,42.8%,63.7%,62.3%,90.1%,60.1%,22.4%,120%
"CO[C@@H]1[C@H](N(C)C(=O)c2ccccc2)C[C@H]2O[C@]1(C)n1c3ccccc3c3c4c(c5c6ccccc6n2c5c31)C(=O)NC4 [Midostaurin] + COc1cc(N2CCC(N3CCN(C)CC3)CC2)ccc1Nc1ncc(Cl)c(Nc2ccccc2S(=O)(=O)C(C)C)n1 [NVP-TAE684] (first compound 0.4 µM, partner dose 0.4 µM)",50.4%,66.1%,84.3%,73.1%,70.3%,77.4%,7.03%,51.2%,46.8%,89.3%

# From the supplement of paper PMC4604168 (melanoma cell lines)
